Test results as given in PMC3858240 (Journal of immunology (Baltimore, Md. : 1950), 2013).
Each block holds one binder with its values, some of them ahead of it.

How the values were obtained:
Flag-TLR3 A795P = Flag-TLR3 A795P (human, UniProt O15455 24-904, A795P); test: co-IP
[1] = target: Flag-TLR3 (wild-type Toll-like receptor 3) (human, UniProt O15455 24-904); test: co-IP

fold increase in binding after poly (I:C) against unstimulated (Flag-TLR3 A795P): 1.5 fold
fold increase in binding after poly (I:C) against unstimulated [1]: 2.5 fold
B1: full-length Myc-tagged TRIF (natural protein)
chain: MACTGPSLPSAFDILGAAGQDKLLYLKHKLKTPRPGCQGQDLLHAMVLLKLGQETEARISLEALKADAVARLVARQWAGVDSTEDPEEPPDVSWAVARLYHLLAEEKLCPASLRDVAYQEAVRTLSSRDDHRLGELQDEARNRCGWDIAGDPGSIRTLQSNLGCLPPSSALPSGTRSLPRPIDGVSDWSQGCSLRSTGSPASLASNLEISQSPTMPFLSLHRSPHGPSKLCDDPQASLVPEPVPGGCQEPEEMSWPPSGEIASPPELPSSPPPGLPEVAPDATSTGLPDTPAAPETSTNYPVECTEGSAGPQSLPLPILEPVKNPCSVKDQTPLQLSVEDTTSPNTKPCPPTPTTPETSPPPPPPPPSSTPCSAHLTPSSLFPSSLESSSEQKFYNFVILHARADEHIALRVREKLEALGVPDGATFCEDFQVPGRGELSCLQDAIDHSAFIILLLTSNFDCRLSLHQVNQAMMSNLTRQGSPDCVIPFLPLESSPAQLSSDTASLLSGLVRLDEHSQIFARKVANTFKPHRLQARKAMWRKEQDTRALREQSQHLDGERMQAAALNAAYSAYLQSYLSYQAQMEQLQVAFGSHMSFGTGAPYGARMPFGGQVPLGAPPPFPTWPGCPQPPPLHAWQAGTPPPPSPQPAAFPQSLPFPQSPAFPTASPAPPQSPGLQPLIIHHAQMVQLGLNNHMWNQRGSQAPEDKTQEAE

fold increase in binding after poly (I:C) against unstimulated (Flag-TLR3 A795P): 2 fold
B2: full-length Myc-tagged MyD88 (natural protein)
chain: MAAGGPGAGSAAPVSSTSSLPLAALNMRVRRRLSLFLNVRTQVAADWTALAEEMDFEYLEIRQLETQADPTGRLLDAWQGRPGASVGRLLELLTKLGRDDVLLELGPSIEEDCQKYILKQQQEEAEKPLQVAAVDSSVPRTAELAGITTLDDPLGHMPERFDAFICYCPSDIQFVQEMIRQLEQTNYRLKLCVSDRDVLPGTCVWSIASELIEKRCRRMVVVVSDDYLQSKECDFQTKFALSLSPGAHQKRLIPIKYKAMKKEFPSILRFITVCDYTNPCTKSWFWTRLAKALSLP
